Test results published in the supplement of paper PMC3334620.
In all, about 33,000 sequences were measured (“E-score (-0.5 to 0.5)”: median about -0.013, highest 2% from about 0.3 on). The list shows a part of the results.

Molecular target: T1, Msn1 (UniProt P22148)
T1 sequence: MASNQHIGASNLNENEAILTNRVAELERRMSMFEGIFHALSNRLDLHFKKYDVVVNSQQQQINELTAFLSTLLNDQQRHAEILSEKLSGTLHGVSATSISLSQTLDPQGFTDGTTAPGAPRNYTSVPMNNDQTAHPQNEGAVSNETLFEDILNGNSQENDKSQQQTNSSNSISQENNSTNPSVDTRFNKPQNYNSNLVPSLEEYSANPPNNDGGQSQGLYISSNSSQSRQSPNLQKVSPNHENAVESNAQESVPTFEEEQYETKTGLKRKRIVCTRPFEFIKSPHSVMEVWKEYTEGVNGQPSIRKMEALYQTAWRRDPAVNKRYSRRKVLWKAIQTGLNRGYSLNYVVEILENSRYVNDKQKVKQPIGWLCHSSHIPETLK
Assay: PBM E-score (8-mer binding enrichment) (E-score (-0.5 to 0.5)); higher = stronger / more preferred TF binding; most listed sequences are background and not binding sites
Conditions: protein concentration: 200 nM; construct: GST-full length
Description: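 Universal 'all 10-mer' protein binding microarrays (Agilent AMADID 015681) probed with GST-tagged S. cerevisiae TFs (full-length or DBD) made by in vitro transcription/translation (PURExpress), about 100-200 nM. Bound TF was detected with fluorescent anti-GST. Each ungapped 8-mer (which stands for itself and its reverse complement) is scored by the PBM enrichment score (E-score), a modified Wilcoxon-Mann-Whitney statistic from -0.5 to +0.5, computed with the Universal PBM Analysis Suite. Scale: above 0.35 generally sequence-specific binding.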

Point of comparison: CTGTCAAA, “PBM E-score” value 0.0466. Against it:
- GGTTTTAA — higher, 0.0613
- AACATGCA — lower, -0.0174
- AGACCCTG — lower, -0.165
- TAATCGAA — higher, 0.142
- CCTAGCTC — lower, -0.148
- CAAGATGG — lower, -0.0978
- CCACTGCA — higher, 0.0537
- GGCTTGAA — lower, -0.0689
- CCAACCCG — lower, -0.0115
- GGTGTGAA — higher, 0.178
- ACATTAGA — higher, 0.236
- CCTAATAG — lower, -0.0111
- CGTTGCAG — lower, -0.0934
- GTGCTTTA — higher, 0.0809
- CCTTTGCC — lower, -0.104
- AATTCGTA — higher, 0.106
- GAGAGCGA — lower, 0.00579
- CACACATG — lower, -0.0314
- CCGGTTGC — higher, 0.0883
- AATGGCGA — higher, 0.118
- ACACCGTG — lower, -0.05
- AAAAGATA — higher, 0.0886
- CCATCCCG — lower, -0.158
- CTTATCCA — higher, 0.135
- ACCATGGC — higher, 0.105
- GATTTGCA — higher, 0.0983
- AACTCCTG — lower, -0.221
- TATCTCAA — higher, 0.201
- AACCGATA — higher, 0.071
- GGCAATAC — higher, 0.101
- CGAGACCG — lower, 0.0114
- GCCTTCGA — lower, -0.163
- AAGCAGAC — lower, -0.0714
- AGTGGAAA — lower, 0.0448
- ACATCTAG — higher, 0.142
- ATCAACAC — higher, 0.151
- CTTCATAC — lower, 0.0362
- CCGTGCGA — lower, 0.00353
- CTGAAAGA — higher, 0.0495
- TCTAGACA — higher, 0.332
- CTGTCGCC — lower, -0.0982
- GCGAGTCC — lower, -0.149
- ATCGGGCC — lower, -0.144
- AATCAACA — higher, 0.209
- CTTGAGCC — lower, -0.205
- GAGCTCTA — lower, -0.0425
- CGCCTGGA — lower, -0.0478
- ACGTAAGA — higher, 0.0894
- GACTCGAA — lower, -0.164
- TAATTCAA — higher, 0.208
- GATGGCGC — lower, -0.252
- CGTGGATC — lower, -0.00231
- ATAGGCAT — lower, -0.117
- ACTACTAT — higher, 0.23
- GTCACACA — lower, -0.0461
- ACACGGAA — higher, 0.166
- ATCCTTAC — lower, -0.0633
- ATAGATGA — lower, -0.0355
- CAGAGCCA — lower, -0.237
- CGGGCAAA — higher, 0.0842
- AGGCTTTA — lower, -0.202
- ACCCGTGG — lower, -0.192
- ATCGATAA — higher, 0.169
- AACCTACG — lower, -0.134
- CAATATGG — lower, -0.0474
- CTCGACAA — higher, 0.0867
- GTTTTGGA — lower, 0.042
- TATGGAGA — higher, 0.0848
- CCTGAATC — lower, -0.0296
- GAATGATC — higher, 0.0556
- CGTTCGTA — lower, 0.0362
- ACGTACCG — lower, 0.0256
- AGGTACCT — lower, 0.0194
- CGTAAGAG — lower, -0.0677
- GCTAAGAA — lower, -0.238
- ACCATACA — lower, -0.0109
- GTTGTTAA — higher, 0.334
- GCTATAAA — lower, -0.0244
- CTTAGCAC — lower, -0.0653
- GACGAAAA — higher, 0.291
- AGCCGGCT — lower, -0.3
- CTTAGCCC — lower, -0.0375
- AGGATCTG — lower, -0.0607
- AGTTAGTA — higher, 0.0589
- ACTGCTAC — lower, -0.11
- AGCATCGG — lower, -0.0359
- CGTTAGCA — higher, 0.0467
- GGTTTCCA — lower, -0.00163
- ACGGGCGG — lower, -0.141
- ATTTCCTA — higher, 0.165
- TCAGCAAA — higher, 0.0996
- ATCCGTCA — lower, 0.00708
- AAGTTTCT — higher, 0.0733
- TCGACTCA — higher, 0.0627
- CAAGCCGG — higher, 0.0981
- ACGCCTAT — lower, -0.0241
- AAGCTTTC — lower, 0.0444
- GAGAGCGC — lower, -0.358
- CGCGACCG — higher, 0.0606
- AGTTCGGG — higher, 0.259
- GCATCGTA — lower, -0.157
- GCAGTCTA — lower, -0.142
- GAAATTAC — higher, 0.109
- GCAGCTAA — lower, -0.194
- CGCAGTAA — lower, -0.0108
- ATCTGCAG — lower, 0.0132
- GCGAACGC — lower, -0.139
- CAGCTTGC — lower, -0.107
- CTAGCAGC — lower, -0.0169
- CACTGTTC — lower, -0.107
- TAAGTTCA — lower, -0.00232
- ACTAGTTC — higher, 0.0576
- ACCCCTTG — lower, -0.23
- CCAGATTA — lower, 0.00634
- ATGTTACA — higher, 0.122
- ATATACAG — higher, 0.234
- AAAAGTAC — higher, 0.366
- GGTTAGTA — lower, -0.0399
- GTACCTCA — higher, 0.177
- CTAGGCAC — lower, 0.0117
- CTCGCGAA — lower, -0.0296
- AAAGGAAG — lower, -0.069
- GCCTGATA — lower, -0.148
- AGCATCAT — lower, 0.0126
- ACATACCG — higher, 0.114
- AACTCGCT — higher, 0.0996
- TACGATAA — higher, 0.0522
- CAAATTTC — higher, 0.184
- AGCTCGCA — lower, -0.0442
- GACCACTC — lower, -0.128
- GAGAGCCC — lower, -0.469
- ACAGTCTG — lower, -0.0157
- GAGCCAGA — higher, 0.0645
- CGGATAGC — lower, 0.0301
- TCGCCCGA — lower, 0.00922
- GATTTGAA — higher, 0.185
- CCGTCAAA — higher, 0.0733
- TACTCAGA — higher, 0.105
- ACATCGAT — higher, 0.189
- ATTAGAGC — higher, 0.0959
- ACTAAGGA — lower, 0.0315
- GTGGAGGA — lower, -0.168
- CTGACTGC — lower, -0.211
- GGAAATTA — higher, 0.183
- AGCTGGTA — lower, -0.0342
- CTCAGTCA — lower, -0.173
- GACACGCC — higher, 0.324
- AATCACCA — lower, 0.0292
- ACAGGCCC — lower, -0.192
- AACTAAAT — higher, 0.0655
- CCACTTTC — lower, -0.0357
- CGAATGGC — lower, 0.041
- TCGGCCAA — lower, -0.00534
- CAGGGACG — higher, 0.165
- TCGTGCCA — lower, -0.106
- TAGCTCCA — lower, -0.0301
- AGTGGCGG — lower, -0.173
- CGAACCGA — higher, 0.113
- CAGCCCAA — lower, -0.0322
- CCCACTGC — lower, -0.155
- GGCCACGA — lower, -0.0736
- GTAACGAC — lower, 0.0121
- TACCAAAA — lower, -0.00284
- CATTCTTC — lower, -0.0454
- AGATACGA — higher, 0.109
- ATGGGCTG — lower, -0.146
- CACTAGCA — lower, -0.0794
- CTCTTAGA — lower, 0.0286
- AGAAAAAC — lower, -0.0225
- TCGTCACA — lower, -0.0592
- ATTACGAG — lower, 0.0183
